This is one part of the list. Most values come without repeats; read them as rough.
Test system: COLO829
Assay: cell count relative to DMSO control; melanoma cells; higher = more viable cells
Settings: library dose: low library concentration; 72 h
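Further: cell number obtained by counting DAPI-stained nuclei in high-throughput microscope images with image analysis software, screen run in 1,536-well plates.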

| SMILES | cell count |
| --- | --- |
| CC(C)C[C@H](NC(=O)[C@H](Cc1ccccc1)NC(=O)c1cnccn1)B(O)O [Bortezomib] + Cn1c(Nc2ccc(C(F)(F)F)cc2)nc2cc(Oc3ccnc(-c4ncc(C(F)(F)F)[nH]4)c3)ccc21 [CHIR265] (first compound 0.001 µM, partner dose 0.08 µM) | 48.3% |
| Cc1cc(Nc2cc(N3CCN(C)CC3)nc(/C=C/c3ccccc3)n2)n[nH]1 + Cn1nnc2c(C(N)=O)ncn2c1=O [temozolomide] (first compound 0.04 µM, partner dose 2 µM) | 79.1% |
| Cc1cn(-c2cc(NC(=O)c3ccc(C)c(Nc4nccc(-c5cccnc5)n4)c3)cc(C(F)(F)F)c2)cn1 [nilotinib] + Cn1nnc2c(C(N)=O)ncn2c1=O [temozolomide] (first compound 0.2 µM, partner dose 2 µM) | 83.2% |

Test system: G361
Assay: as above
Settings: library dose: low library concentration; 72 h

| SMILES | cell count |
| --- | --- |
| COc1ccc(C2=N[C@@H](c3ccc(Cl)cc3)[C@@H](c3ccc(Cl)cc3)N2C(=O)N2CCNC(=O)C2)c(OC(C)C)c1 [Nutlin-3] + C=C(c1ccc(C(=O)O)cc1)c1cc2c(cc1C)C(C)(C)CCC2(C)C [Bexarotene] (first compound 0.1 µM, partner dose 2 µM) | 81% |
| Cc1cc(Nc2cc(N3CCN(C)CC3)nc(/C=C/c3ccccc3)n2)n[nH]1 + Cc1nc(Nc2ncc(C(=O)Nc3c(C)cccc3Cl)s2)cc(N2CCN(CCO)CC2)n1 [dasatanib] (first compound 0.04 µM, partner dose 0.004 µM) | 97.9% |
| Cc1cn(-c2cc(NC(=O)c3ccc(C)c(Nc4nccc(-c5cccnc5)n4)c3)cc(C(F)(F)F)c2)cn1 [nilotinib] + CC(=O)O[C@@]12CO[C@@H]1C[C@H](O)[C@@]1(C)C(=O)[C@H](O)C3=C(C)[C@@H](OC(=O)[C@H](O)[C@@H](NC(=O)OC(C)(C)C)c4ccccc4)C[C@@](O)([C@@H](OC(=O)c4ccccc4)[C@H]21)C3(C)C [Docetaxel] (first compound 0.2 µM, partner dose 0.0001 µM) | 33.9% |
| Cn1c(=O)n(-c2ccc(C(C)(C)C#N)cc2)c2c3cc(-c4cnc5ccccc5c4)ccc3ncc21 + CO[C@H]1C[C@@H]2CC[C@@H](C)[C@@](O)(O2)C(=O)C(=O)N2CCCC[C@H]2C(=O)O[C@H]([C@H](C)C[C@@H]2CC[C@@H](OCCO)[C@H](OC)C2)CC(=O)[C@H](C)/C=C(\C)[C@@H](O)[C@@H](OC)C(=O)[C@H](C)C[C@H](C)/C=C/C=C/C=C/1C [everolimus] (first compound 0.004 µM, partner dose 0.02 µM) | 32.7% |
| COc1ccc(C2=N[C@@H](c3ccc(Cl)cc3)[C@@H](c3ccc(Cl)cc3)N2C(=O)N2CCNC(=O)C2)c(OC(C)C)c1 [Nutlin-3] + C[C@]1(c2nc3c(C(N)=O)cccc3[nH]2)CCCN1 [Veliparib] (first compound 0.1 µM, partner dose 1.4 µM) | 93% |
| COc1ccc(C2=N[C@@H](c3ccc(Cl)cc3)[C@@H](c3ccc(Cl)cc3)N2C(=O)N2CCNC(=O)C2)c(OC(C)C)c1 [Nutlin-3] + Nc1cccc2c1CN(C1CCC(=O)NC1=O)C2=O [lenalidomide] (first compound 0.1 µM, partner dose 1 µM) | 91% |
| CC(C)C[C@H](NC(=O)[C@H](Cc1ccccc1)NC(=O)c1cnccn1)B(O)O [Bortezomib] + O=C(O)[C@@H]1[O][Sb](=[O])([O][Sb]2(=[O])[O][C@H]([C@H](O)CO)[C@H](O)[C@H](C(=O)O)[O]2)[O][C@H]([C@H](O)CO)[C@@H]1O [stibogluconate] (first compound 0.001 µM, partner dose 2 µM) | 13.5% |
| COc1ccc(C2=N[C@@H](c3ccc(Cl)cc3)[C@@H](c3ccc(Cl)cc3)N2C(=O)N2CCNC(=O)C2)c(OC(C)C)c1 [Nutlin-3] + Nc1ccn([C@@H]2O[C@H](CO)[C@@H](O)C2(F)F)c(=O)n1 [gemcitabine] (first compound 0.1 µM, partner dose 0.0004 µM) | 83.3% |
| Cc1cc(Nc2cc(N3CCN(C)CC3)nc(/C=C/c3ccccc3)n2)n[nH]1 + CCCS(=O)(=O)Nc1ccc(F)c(C(=O)c2c[nH]c3ncc(Cl)cc23)c1F [PLX4720] (first compound 0.04 µM, partner dose 0.08 µM) | 92.1% |

From the supplement of paper PMC4604168 (melanoma cell lines)
